In ChEMBL document CHEMBL4888484, “Replenishing the malaria drug discovery pipeline: Screening and hit evaluation of the MMV Hit Generation Library 1 (HGL1) against asexual blood stage Plasmodium falciparum ,using a nano luciferase reporter read-out” (2022):
The whole screen tested about 150,000 compounds, of which about 540 (0.36%) showed an effect of 50% or more. This is one part of the list.

Test system: Plasmodium falciparum
Assay: Primary screen in NF54 nanoGlo assay, in single point, at 2uM, 72h; a lower Z score goes with more inhibition
Assay type: functional, Erythrocyte
Details: timepoint 72 hour

Structure (SMILES)	% Inhibition	Z score
c1cc2c(cc1CCN1CCCC1)CCO2	-12%	1.27
Cc1cc(CN2CCCC3(C2)OCCO3)c(C)o1	-1%	0.12
Cc1noc(C)c1CN1CC2CC1CO2 (stereo not drawn)	-10%	1.33
CCC(=O)N1CCc2cc(N3C[C@@H](C(=O)N4CCC5(CC4)OCCO5)CC3=O)ccc21	-7%	1.38
CC(C)(C)OC(=O)N1C2CCC1CN(Cc1ccccn1)CC2 (stereo not drawn)	-13%	1.66
CNC(=O)c1cccnc1N1C[C@H]2COc3ccccc3C[C@@]2(C(=O)O)C1	-23%	2.5
Cc1nn(C[C@H](C)N(C)Cc2cscn2)c(C)c1Cl	-4%	0.69
Cn1c(=O)oc2c(C(=O)N[C@H]3CC(C)(C)c4ccccc43)cccc21	-4%	0.68
CC(C)N(CCO)CCc1ccc(F)cc1Cl	0%	-0.1
COCCn1nnnc1[C@]1(N2CCCC2)CCN(C(=O)Cc2cccc(OC)c2)C1	-3%	0.45
C=CC1CN2CCC1CC2c1[nH]c2ccccc2c1CCO (stereo not drawn)	-42%	4.88
Cc1cc2[nH]c(CN3CCN4C(=O)OC[C@H]4C3)cc(=O)n2n1	4%	-0.74
CNC(=O)c1ccc(CN2C[C@H]3c4ccccc4OC[C@@]3(C(=O)O)C2)cc1	-12%	1.19
Cc1[nH]c2ccccc2c1C(=O)[C@H](C)N1CCC(n2cncn2)CC1	6%	-0.87
CC(C)C(Cc1ccc(F)cc1)NC(=O)CC1CC2CCC(C1)N2 (stereo not drawn)	-16%	1.6
CCn1cc(C(=O)N2C[C@@H](c3cccc(F)c3F)[C@@H]3[C@H]2C2CCN3CC2)cn1	-2%	0.33
O=C(c1cncc(O)c1)N1C[C@H](c2ccccc2)C2(CCC2)C1	1%	-0.26
Cc1csc2c(N3CCN4CCCC[C@H]4C3)ncnc12	-16%	2.48
COc1ccccc1[C@H]1CN(C(=O)CCn2cncn2)[C@@H]2C3CCN(CC3)[C@H]12	-3%	0.64
COc1ccc(NC(=O)CN2CC=C(c3cnn(C)c3)CC2)cc1Cl	-9%	1.67
O=C(Nc1ccc2n(c1=O)C[C@H]1C[C@@H]2CN(CC2CCCCC2)C1)C1CCCCC1	4%	-0.49

Structure (SMILES)	% Inhibition	Z score
C[C@@H](C(=O)N(C)C)N1CCC2(CCCCCC2)C1	-15%	2.66
COCCn1c(C(=O)NCc2nnc3ccccn23)cc2cc(Cl)ccc21	-17%	1.54
C=CCn1cc(CNCCc2c[nH]c3ccccc23)c(C)n1	-10%	1.34
CC(C)CCOc1ccccc1CCN	-2%	0.25
Cn1cc(C(=O)Nc2ccc3c(c2)OCO3)c2cccnc21	3%	-0.31
O=C(COc1ccccc1Cl)N1CCN(CC2CC2)[C@@H]2CS(=O)(=O)C[C@@H]21	-3%	0.41
N#Cc1ccc(NC(=O)N2CC(=O)NC3CCCCC32)cc1Cl (stereo not drawn)	-12%	1.37
CCOC(=O)N1C[C@@H](c2cc(F)cc(F)c2)[C@@H]2[C@H]1C1CCN2CC1	-1%	0.21
O=C(c1cccc2ccccc12)[C@H]1CCCN(CCc2cn[nH]c2)C1	19%	-2.18
Cc1ccc(C(=O)N2CCC(c3n[nH]c(=O)o3)CC2)c2c1CCC2	9%	-1.71
Cc1ncccc1CC(=O)N1CCN(CC(F)(F)F)C[C@H](C)C1	1%	-0.16
CN(C)CCc1ccc(NCC(C)(C)CCC#N)cc1	5%	-0.49
O=S(=O)(c1ccc(Br)cc1)N1CCN2CCC1CC2	-7%	1.4
Cc1ccc(CCNCC(F)(F)F)cc1	-6%	0.64
Cc1ccc(C(=O)N2c3ccc(C)cc3[C@@H]3CN(C)CC[C@@H]32)cc1	1%	-0.13
O=C(c1ccc(C(F)(F)F)cc1)[C@H]1CCCN(Cc2ccoc2)C1	-3%	0.51
Cc1cc(Br)oc1C(=O)N1CCO[C@H]2CNC[C@H]21	-13%	1.81
O=C(c1ccccc1)c1cc(Cl)ccc1NC(=O)C1CCN(C(=O)c2ccco2)CC1	1%	-0.14
CN1C[C@@H]2CCCN(S(=O)(=O)c3ccco3)[C@@H]2C1	8%	-1.07
Cc1ccc([C@H]2CN(C(=O)CN3CCOC3=O)[C@@H]3C4CCN(CC4)[C@H]23)cc1	4%	-0.74
CCCc1nn(C[C@H](O)c2cccc(Cl)c2)c(=O)o1	-3%	0.29

Structure (SMILES)	% Inhibition	Z score
CN1CCCc2cc(C(=O)N3CCC4(CC3)OCCO4)sc21	-10%	1.84
CC[C@@H](Cc1ccco1)NCc1ncc[nH]1	4%	-0.44
N#Cc1ccc(N2CCn3c(nnc3C(F)(F)F)C2)cc1Cl	-6%	0.48
CN(Cc1cccnc1)C[C@@H]1CC=CCC1	0%	0
COc1ccc(CCN2C(=O)NC(=O)C3(Cc4c(Cl)cccc4N4CCCC43)C2=O)cc1OC (stereo not drawn)	-11%	1.39
COc1ccccc1Cn1cc(C(=O)NCCC(C)C)c(=O)c(C(=O)N(C)CCc2ccccn2)c1	0%	-0.06
Cc1ccc2cc(CN3CCN4CCC[C@H]4C3)c(=O)[nH]c2c1	-1%	0.25
COc1ccc(OC)c(-c2c(C#N)c(N)nc3c2[C@@H]2CC[C@H](C3)N2)c1	7%	-0.84
CCCN1C[C@@H]2CC[C@H]1CN(C(=O)Cc1cccc(OC)c1OC)C2	-12%	2.11
CN1CC2CCC(C1)N2c1ccc(S(C)(=O)=O)cn1	-7%	1.03
CC1(C)C[C@H](O)c2cc(NCC(=O)N3CCC4(CC3)OCCO4)ccc21	-9%	1.05
C[C@@H](Cc1ccccc1Br)NC(=O)NCC1(CO)CC1	-4%	0.39
CC(N)C(O)c1ccc(Br)cc1 (stereo not drawn)	-3%	0.37
Cc1ccc(C[C@H](C)N(C)CCCC(=O)O)cc1	7%	-1.27
O=c1ccc(-c2ccc(Cl)cc2)c2n1C[C@H]1C[C@@H]2CN(S(=O)(=O)c2ccccc2)C1	-5%	0.87
O=C(Cc1cccc2ccccc12)N1CC[C@H](N2CCc3ccccc3C2)C1	-8%	1.57
Cc1ccccc1OCC(=O)N1CCCN([C@H]2CCN(Cc3ccc(F)cc3)C2=O)CC1	11%	-1.47
Cc1nc(O)cc(CN(C)CCc2ccccc2)n1	-7%	1
CC(=O)C(=O)N1C[C@H](c2ccccc2)[C@@H]2[C@H]1C1CCN2CC1	3%	-0.4
Cn1cc(C(=O)N2CC[C@](C)(O)[C@@H](O)C2)c2ccccc21	1%	-0.2
CC[C@@H](Cn1ccnc1)NCc1ccc(OC)nc1	-3%	0.64

Structure (SMILES)	% Inhibition	Z score
CC(C)C(O)CCNC1CCN(CC(F)(F)F)C1 (stereo not drawn)	-7%	0.94
C[C@H](NCCc1c[nH]c2ccccc12)c1c[nH]c(=O)n(C)c1=O	-8%	1.31
CC[C@H](C)Oc1cccc2c1cc(C(=O)N1CCC3(CC1)OCCO3)n2Cc1ccccc1	-2%	0.46
O=C(c1cn(Cc2c(F)cccc2Cl)c2ccccc12)C1CCCCC1	-11%	1.34
Cc1cnn(C[C@H](C)NCc2cn3ccccc3n2)c1	-12%	1.32
N#Cc1ccc(NC(CO)CO)cc1Cl	13%	-1.36
COc1cccc2c1OC[C@@]1(C(=O)O)CN(C(=O)c3cc(C)ccc3C)C[C@@H]21	2%	-0.25
COc1cc2c3c(c1O)-c1c(ccc(OC)c1OC)C[C@@H]3N(C)CC2 [CORYDINE]	-4%	0.52
CCC(=O)N1CCc2cc(Br)c(S(=O)(=O)CCC(=O)N3CCC4(CC3)OCCO4)cc21	7%	-0.69
Oc1ccc2c(c1)CCC(NC1CCC1C1CCC1)C2 (stereo not drawn)	-4%	0.78
C=CCOc1ccccc1-c1c(C#N)c(N)nc2c1N1CCC2CC1	-3%	0.63
CC#CCCN[C@H]1CC(C)(C)OC1(C)C	-1%	0.15
c1cnc(N2C[C@H]3CC[C@@H](C2)N(Cc2nnc(C4CC4)o2)C3)nc1	6%	-1.06
CCCN1C(=O)[C@@H]2CCC(=O)N2c2ccc(C(=O)N3CCC4(CC3)OCCO4)cc21	10%	-1.1
O=c1oc2ccccc2n1S(=O)(=O)c1ccccc1	-16%	1.9
CCCn1nnnc1NC(=O)N[C@H]1CN2CCC1CC2	-2%	0.22
CCn1c(=O)c(N2CCC(C(=O)N3CCC4(CC3)OCCO4)CC2)nc2ccccc21	-2%	0.39
O=C(N[C@@H](Cc1ccccc1)c1ccccc1)c1nn(Cc2ccccc2)c2nccc(-c3cccs3)c12	-10%	1.06
CCc1cccc(NC(=O)N2[C@H]3CC[C@@H]2c2cncnc2C3)c1	-6%	1.16
Cc1ccccc1CNC(=O)[C@H]1CCCN(S(=O)(=O)c2ccc3[nH]c(=O)oc3c2)C1	-17%	1.71
O=C(Cc1cccc2ccccc12)N1CCN(Cc2ccccc2)CC1	-10%	1.22
